According to PMC10791543 (Science signaling, 2023):

Target: GST-mDia1-RBD (mouse, UniProt O08808 69-451)
Assay: other fluorescence titration

Kd: 0.181 ± 0.027 µM
B1: recombinant RHOA^L57V (natural protein)
chain: not shown
